# Experimental data: the supplement of paper PMC8728848
# Some of the results follow.
# Legend:
# Assay in all cases: glycan array binding signal (z-score within array); higher = stronger binding
# Settings in all cases: glycan notation: IUPAC condensed, linker removed
# [1] = target: Neu5Ac(a2-3)Gal(b1-3)GlcNAc
# How it was run: (§1)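 Arrays were curated from the Consortium for Functional Glycomics database, 3228 in total, and kept only where the protein sequence was available. Binding is expressed as a within-array Z-score. This score was averaged across arrays of the same protein sequence at different concentrations or buffers and across linkers, and negative values can be read as non-binding.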
# [2] = target: Neu5Ac(a2-3)Gal(b1-3)GlcNAc(b1-2)Man
# How it was run: as §1
# [3] = target: Neu5Ac(a2-3)Gal(b1-3)GlcNAc(b1-2)Man(a1-3)[GlcNAc(b1-4)][Neu5Ac(a2-3)Gal(b1-3)GlcNAc(b1-2)Man(a1-6)]Man(b1-4)GlcNAc(b1-4)GlcNAc
# How it was run: as §1
# [4] = target: Neu5Ac(a2-3)Gal(b1-3)GlcNAc(b1-2)Man(a1-3)[Neu5Ac(a2-3)Gal(b1-3)GlcNAc(b1-2)Man(a1-6)]Man(b1-4)GlcNAc(b1-4)GlcNAc
# How it was run: as §1
# [5] = target: Neu5Ac(a2-3)Gal(b1-3)GlcNAc(b1-2)[Neu5Ac(a2-3)Gal(b1-3)GlcNAc(b1-4)]Man(a1-6)[Neu5Ac(a2-3)Gal(b1-3)GlcNAc(b1-2)Man(a1-3)]Man(b1-4)GlcNAc(b1-4)GlcNAc
# How it was run: as §1
# [6] = target: Neu5Ac(a2-3)Gal(b1-3)GlcNAc(b1-3)Gal(b1-3)GlcNAc
# How it was run: as §1
# [7] = target: Neu5Ac(a2-3)Gal(b1-3)GlcNAc(b1-3)Gal(b1-4)GlcNAc
# How it was run: as §1
# [8] = target: Neu5Ac(a2-3)Gal(b1-3)GlcNAc(b1-3)GalNAc
# How it was run: as §1
# [9] = target: Neu5Ac(a2-3)Gal(b1-3)GlcNAc(b1-6)GalNAc
# How it was run: as §1
# [10] = target: Neu5Ac(a2-3)Gal(b1-3)GlcNAc6S
# How it was run: as §1
# [11] = target: Neu5Ac(a2-3)Gal(b1-3)[Fuc(a1-4)]GlcNAc
# How it was run: as §1
# [12] = target: Neu5Ac(a2-3)Gal(b1-3)[Fuc(a1-4)]GlcNAc(b1-3)Gal(b1-3)[Fuc(a1-4)]GlcNAc
# How it was run: as §1
# [13] = target: Neu5Ac(a2-3)Gal(b1-3)[Fuc(a1-4)]GlcNAc(b1-3)Gal(b1-4)[Fuc(a1-3)]GlcNAc
# How it was run: as §1
# [14] = target: Neu5Ac(a2-3)Gal(b1-3)[GlcNAc(b1-6)]GalNAc
# How it was run: as §1
# [15] = target: Neu5Ac(a2-3)Gal(b1-3)[Neu5Ac(a2-6)]GalNAc
# How it was run: as §1
# [16] = target: Neu5Ac(a2-3)Gal(b1-3)[Neu5Ac(a2-6)]GlcNAc(b1-3)[Fuc(a1-3)[Gal(b1-4)]GlcNAc(b1-6)]Gal(b1-4)Glc
# How it was run: as §1
# [17] = target: Neu5Ac(a2-3)Gal(b1-3)]Neu5Ac(a2-3)Gal(b1-4)]GlcNAc
# How it was run: as §1
# Neu5Ac(a2-3)Gal(b1-4)Glc = target: Neu5Ac(a2-3)Gal(b1-4)Glc
# How it was run: as §1
# [18] = target: Neu5Ac(a2-3)Gal(b1-4)GlcNAc
# How it was run: as §1
# [19] = target: Neu5Ac(a2-3)Gal(b1-4)GlcNAc(b1-2)Man
# How it was run: as §1
# [20] = target: Neu5Ac(a2-3)Gal(b1-4)GlcNAc(b1-2)Man(a1-3)[GlcNAc(b1-4)][Neu5Ac(a2-3)Gal(b1-4)GlcNAc(b1-2)Man(a1-6)]Man(b1-4)GlcNAc(b1-4)GlcNAc
# How it was run: as §1
# [21] = target: Neu5Ac(a2-3)Gal(b1-4)GlcNAc(b1-2)Man(a1-3)[Neu5Ac(a2-3)Gal(b1-4)GlcNAc(b1-2)Man(a1-6)]Man(b1-4)GlcNAc(b1-4)GlcNAc
# How it was run: as §1
# [22] = target: Neu5Ac(a2-3)Gal(b1-4)GlcNAc(b1-2)Man(a1-3)[Neu5Ac(a2-3)Gal(b1-4)GlcNAc(b1-2)Man(a1-6)]Man(b1-4)GlcNAc(b1-4)[Fuc(a1-6)]GlcNAc
# How it was run: as §1
# [23] = target: Neu5Ac(a2-3)Gal(b1-4)GlcNAc(b1-2)Man(a1-3)[Neu5Ac(a2-6)Gal(b1-4)GlcNAc(b1-2)Man(a1-6)]Man(b1-4)GlcNAc(b1-4)GlcNAc
# How it was run: as §1
# [24] = target: Neu5Ac(a2-3)Gal(b1-4)GlcNAc(b1-2)[Neu5Ac(a2-3)Gal(b1-4)GlcNAc(b1-4)]Man(a1-3)[GlcNAc(b1-4)][Neu5Ac(a2-3)Gal(b1-4)GlcNAc(b1-2)[Neu5Ac(a2-3)Gal(b1-4)GlcNAc(b1-6)]Man(a1-6)]Man(b1-4)GlcNAc(b1-4)GlcNAc
# How it was run: as §1
# [25] = target: Neu5Ac(a2-3)Gal(b1-4)GlcNAc(b1-2)[Neu5Ac(a2-3)Gal(b1-4)GlcNAc(b1-4)]Man(a1-3)[GlcNAc(b1-4)][Neu5Ac(a2-3)Gal(b1-4)GlcNAc(b1-4)Man(a1-6)]Man(b1-4)GlcNAc(b1-4)GlcNAc
# How it was run: as §1
# [26] = target: Neu5Ac(a2-3)Gal(b1-4)GlcNAc(b1-2)[Neu5Ac(a2-3)Gal(b1-4)GlcNAc(b1-6)]Man(a1-6)[Neu5Ac(a2-3)Gal(b1-4)GlcNAc(b1-2)Man(a1-3)][GlcNAc(b1-4)]Man(b1-4)GlcNAc(b1-4)GlcNAc
# How it was run: as §1
# [27] = target: Neu5Ac(a2-3)Gal(b1-4)GlcNAc(b1-3)Gal
# How it was run: as §1
# [28] = target: Neu5Ac(a2-3)Gal(b1-4)GlcNAc(b1-3)Gal(b1-3)GlcNAc
# How it was run: as §1
# [29] = target: Neu5Ac(a2-3)Gal(b1-4)GlcNAc(b1-3)Gal(b1-4)GlcNAc
# How it was run: as §1
# [30] = target: Neu5Ac(a2-3)Gal(b1-4)GlcNAc(b1-3)Gal(b1-4)GlcNAc(b1-2)Man(a1-3)[Neu5Ac(a2-3)Gal(b1-4)GlcNAc(b1-3)Gal(b1-4)GlcNAc(b1-2)Man(a1-6)]Man(b1-4)GlcNAc(b1-4)GlcNAc
# How it was run: as §1
# [31] = target: Neu5Ac(a2-3)Gal(b1-4)GlcNAc(b1-3)Gal(b1-4)GlcNAc(b1-3)Gal(b1-4)GlcNAc
# How it was run: as §1
# [32] = target: Neu5Ac(a2-3)Gal(b1-4)GlcNAc(b1-3)Gal(b1-4)GlcNAc(b1-3)Gal(b1-4)GlcNAc(b1-2)Man(a1-3)[Neu5Ac(a2-3)Gal(b1-4)GlcNAc(b1-3)Gal(b1-4)GlcNAc(b1-3)Gal(b1-4)GlcNAc(b1-2)Man(a1-6)]GalNAc
# How it was run: as §1
# [33] = target: Neu5Ac(a2-3)Gal(b1-4)GlcNAc(b1-3)Gal(b1-4)GlcNAc(b1-3)GalNAc
# How it was run: as §1
# [34] = target: Neu5Ac(a2-3)Gal(b1-4)GlcNAc(b1-3)Gal(b1-4)GlcNAc(b1-3)[Neu5Ac(a2-3)Gal(b1-4)GlcNAc(b1-3)Gal(b1-4)GlcNAc(b1-6)]GalNAc
# How it was run: as §1
# [35] = target: Neu5Ac(a2-3)Gal(b1-4)GlcNAc(b1-3)Gal(b1-4)GlcNAc(b1-6)[Gal(b1-3)]GalNAc
# How it was run: as §1
# [36] = target: Neu5Ac(a2-3)Gal(b1-4)GlcNAc(b1-3)Gal(b1-4)[Fuc(a1-3)]GlcNAc
# How it was run: as §1
# [37] = target: Neu5Ac(a2-3)Gal(b1-4)GlcNAc(b1-3)GalNAc
# How it was run: as §1
binder,measurement,setting,value
"Sebin2 (Coprinopsis cinerea), A8PE78 (protein) MTTPFYAYCHNVQDDNTWRLGLVFANRSTADEWWRAISEATSSIPITKSITRVTPQYYTHDIRVWNMYNFFVDGNIKSISDKFRGRLFITLEYDRSGRGVSVFPPLHIVDHVSGNWYYIRSKTAPHLFWFYDETRNAIYASKEKRTRFKVSIRNPSPQTPKDAIMINSDDVVIHIKESLYVGVDSYLGHIIPTRAYRTFKFGELEGGAIAGIEVAENAEERCSSTFDGASLYFVGPDSSSPGEPWELV",glycan array binding signal (z-score),[1],-0.181
same,glycan array binding signal (z-score),[2],-0.261
same,glycan array binding signal (z-score),[3],0.192
same,glycan array binding signal (z-score),[4],-0.166
same,glycan array binding signal (z-score),[5],0.057
same,glycan array binding signal (z-score),[6],-0.446
same,glycan array binding signal (z-score),[7],-0.391
same,glycan array binding signal (z-score),[8],-0.169
same,glycan array binding signal (z-score),[9],-0.022
same,glycan array binding signal (z-score),[10],-0.072
same,glycan array binding signal (z-score),[11],-0.027
same,glycan array binding signal (z-score),[12],-0.079
same,glycan array binding signal (z-score),[13],-0.391
same,glycan array binding signal (z-score),[14],-0.419
same,glycan array binding signal (z-score),[15],-0.41
same,glycan array binding signal (z-score),[16],-0.228
same,glycan array binding signal (z-score),[17],-0.097
same,glycan array binding signal (z-score),Neu5Ac(a2-3)Gal(b1-4)Glc,8.35
same,glycan array binding signal (z-score),[18],-0.229
same,glycan array binding signal (z-score),[19],0.448
same,glycan array binding signal (z-score),[20],-0.15
same,glycan array binding signal (z-score),[21],-0.075
same,glycan array binding signal (z-score),[22],-0.242
same,glycan array binding signal (z-score),[23],-0.277
same,glycan array binding signal (z-score),[24],-0.053
same,glycan array binding signal (z-score),[25],-0.204
same,glycan array binding signal (z-score),[26],-0.187
same,glycan array binding signal (z-score),[27],0.088
same,glycan array binding signal (z-score),[28],0.2
same,glycan array binding signal (z-score),[29],-0.336
same,glycan array binding signal (z-score),[30],0.213
same,glycan array binding signal (z-score),[31],-0.201
same,glycan array binding signal (z-score),[32],-0.082
same,glycan array binding signal (z-score),[33],0.042
same,glycan array binding signal (z-score),[34],0.067
same,glycan array binding signal (z-score),[35],0.054
same,glycan array binding signal (z-score),[36],-0.22
same,glycan array binding signal (z-score),[37],0.079
